# The campaign covered roughly 360,000 compounds. About 6,000 (1.7%) were called active. Inconclusive means that the source gave no clear call. Such entries were picked first, then a sample of the others. The call rests on the fitted dose curve; in most records, active means well fitted cell-killing curve with a large enough effect; inconclusive means small, poorly fitted or top-dose-only effect, or effect the other way; inactive means flat fitted curve, though single readings scatter. Potencies of inconclusive entries are left out as doubtful fits.
# Assay: qHTS for induction of synthetic lethality in tumor cells producing 2HG: qHTS for the HT-1080-NT fibrosarcoma cell line;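 further: NT is the 2HG producing partner of a matched IDH1 knockdown line; nearly all actives have a fitted effect of over 55% in size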;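 on activity, negative = less viability: 0% = DMSO-treated cells and -100% = media-only wells without cells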
# Details: HT-1080-NT fibrosarcoma viability, CellTiter-Glo ATP luminescence, 48 h; activity, negative = less viability: at 46.1 µM (top of the series) unless noted
# Procedure, shortened: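 Read-out is CellTiter-Glo luminescence after 10 minutes at room temperature, following 48 hours' compound treatment of HT-1080-NT cells (750 cells/well, RPMI, 5% FBS, 37 degrees C).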
# Potency means the concentration at half of the fitted maximal effect; tags describe the fitted curve by direction and shape.
SMILES,Potency,"activity, negative = less viability"
COc1cc(NC(=O)Cn2c(C)cc3ccccc3c2=O)cc(OC)c1OC,"inconclusive [cytotoxic, single point]",
CCCn1c(SCC(=O)Nc2c(C)cccc2CC)nnc1C(C)C,,inactive: 8.66%
Cc1c(CN(C)C)c2c(n1Cc1ccccc1)C(=O)c1ccccc1-2,active: 23.1 µM,
COc1ccc(C[C@H](N)C(=O)N[C@H]2[C@@H](O)[C@H](n3cnc4c(N(C)C)ncnc43)O[C@@H]2CO)cc1,,inactive: 4.19%
Cc1ccc(F)cc1-c1nc(NCC2CC2)nc2ccsc12,,inactive: -14.3%
COc1ccc(C(=O)N/N=C(\c2ccccc2)c2ccccn2)cc1,,inconclusive: -20.8% [cytotoxic]
CCN1CCN(c2cc(C)c3cc(NC(=S)NCCN(C)C)ccc3n2)CC1,,inactive: -20.2%
Cc1ccc(NC(=O)c2ccc([N+](=O)[O-])s2)cc1S(=O)(=O)N1CCOCC1,"inconclusive [cytotoxic, partial curve]",
Cn1c(=O)c2c(ncn2Cc2cccc(Cl)c2)n(C)c1=O,"inconclusive [cytotoxic, single point]",
CC(=O)Oc1c(Br)cc(N(C(C)=O)S(=O)(=O)c2ccccc2)c2ccccc12,"inconclusive [cytotoxic, single point]",
CCCCn1c2c(c(=N)c3ccccc31)CCC2,"inconclusive [cytotoxic, single point]",
CCOC(=O)c1sc(NC(=O)CSc2ncccn2)nc1C,"inconclusive [cytotoxic, partial curve, poor fit]",
CCOC(=O)C1=C(C)Nc2ncnn2C1/C=C/c1ccccc1 (stereo not given),"inconclusive [cytotoxic, single point]",
COc1ccccc1N1CCN(C(=O)c2oc3ccc(Br)cc3c2C)CC1,"inconclusive [cytotoxic, partial curve]",
Cc1csc(NC(=O)Cc2coc3cc(C)c(C(C)C)cc23)n1,"inconclusive [cytotoxic, single point]",
O=C(/C=C/c1ccc(OCc2ccccc2)c(OCc2ccccc2)c1)c1cccnc1,"inconclusive [cytotoxic, single point]",
O=C(c1cccs1)n1nc(-c2cccnc2)nc1NCc1ccco1,"inconclusive [rising, partial curve]",
Nc1ccccc1-c1ccc([N+](=O)[O-])cc1,"inconclusive [cytotoxic, full curve]",
COC(=O)[C@@]12C[C@@H](CC(=O)NCc3ccc(C)o3)C(=O)N(Cc3cccc4ccccc34)C1=CCC(C)(C)C2,"inconclusive [cytotoxic, single point]",
CC(C)(C)C(=O)N1CCN(c2ccc(NC(=O)c3ccc([N+](=O)[O-])o3)cc2)CC1,active: 4.11 µM,
Cn1nnnc1N=N/C(=N/Nc1ccccc1)c1ccccc1,"inconclusive [cytotoxic, single point]",
COC(=O)c1ccc(Oc2cc(C)nc(-n3nc(C)cc3C)n2)cc1,active: 1.26 µM,
COc1cccc(CN2CCC(C)(Oc3cccc(Cl)c3)C2)c1OC (stereo not given),"inconclusive [cytotoxic, single point]",
COc1ccc(N(CC(=O)NCCc2ccccc2)C(=O)c2csnn2)cc1OC,,inactive: 12%

SMILES,Potency,"activity, negative = less viability"
CC(=O)c1c(C)[nH]c(C(=O)Nc2ccc(C)c(C)c2)c1C,"inconclusive [rising, partial curve]",
Cc1nc(CNC(=O)CC2C(=O)NCCN2Cc2ccc(F)cc2)cs1 (stereo not given),,inactive: 1.58%
CCOC(=O)C1CCN(C(=O)c2ccc(OCC)c(OCC)c2)CC1,,inactive: 6.29%
O=C(CSc1nnnn1C1CCCC1)Nc1cccc(NC(=O)c2ccco2)c1,,inactive: 12.8%
COc1ccc(O)c(-c2cc(-c3cccc(Br)c3)n[nH]2)c1,"inconclusive [cytotoxic, single point]",
O=C(C[n+]1cccc2ccccc21)c1ccc([N+](=O)[O-])cc1,,inactive: -1.94%
CC1(C(=O)Nc2cccc3ncccc23)CCN1C(=O)Cc1ccc(-c2ccccc2)cc1 (stereo not given),"inconclusive [cytotoxic, single point]",
COc1ccc(Cl)cc1CC1(C)C(=O)Nc2ccc(S(=O)(=O)NC3CCCCC3)cc21 (stereo not given),"inconclusive [cytotoxic, single point]",
COc1ccc(NC(=O)c2sc3nc(C)cc(C)c3c2N)c(OC)c1,,inactive: 12.1%
COc1cc(OC)c(-c2c3cc(O)c(=O)cc-3oc3cc(O)c(O)cc23)cc1OC,"inconclusive [cytotoxic, single point]",
CC(C)CNS(=O)(=O)c1ccc(C(=O)Nc2ccc3c(c2)OCCO3)cc1,,inconclusive: -31.2%
CCN(CCn1cccn1)Cc1cn[nH]c1-c1ccc(-c2ccccc2)cc1,,inactive: -0.504%
Cc1nc(-c2ccc(S(=O)(=O)NCc3cccnc3)s2)cs1,"inconclusive [cytotoxic, single point]",
Cc1nc2ccc(C(=O)N3c4ccccc4N=C(c4ccc(C(F)(F)F)cc4)C3C(=O)NC(C)(C)C)cc2[nH]1 (stereo not given),"inconclusive [cytotoxic, partial curve]",
O=C(C(=Cc1ccccc1)CN1CCCCC1)c1ccccc1,"inconclusive [cytotoxic, partial curve, poor fit]",
Cc1ccnc(NS(=O)(=O)c2ccc(N)cc2)n1,"inconclusive [rising, full curve]",
COCc1cc(N2CCCCC2)nc(-c2ccccc2)n1,,inactive: -9.18%
CCOC(=O)C1(Cc2ccccc2)CCN(Cc2cccn2-c2nccs2)CC1,,inactive: -15.6%
CC12CCC(O)CC1=CCC1C2CCC2(C)C(c3ccn[nH]3)CCC12 (stereo not given),"inconclusive [cytotoxic, single point]",
Cn1c(N/N=C/c2c[nH]c3ccccc23)nc2ccccc21,"inconclusive [cytotoxic, partial curve]",
Cc1cccc(-n2ccnc2SCC(=O)Nc2nccs2)c1C,,inactive: -7.09%
Cc1ncc(CO)c(/C=N/NC(=O)c2cc(Br)ccc2O)c1O,"inconclusive [cytotoxic, single point]",
CCCCn1nc(NC(=O)c2cccs2)c2cc3ccccc3nc21,"inconclusive [cytotoxic, single point]",
COc1cc(N2C(=O)C=CC2=O)ccc1N1C(=O)C=CC1=O,"inconclusive [cytotoxic, single point]",

SMILES,Potency,"activity, negative = less viability"
CCC(CC)C(=O)N(C)c1c(C)nc2c(OCc3ccc(C(F)(F)F)cc3)cccn12,"inconclusive [cytotoxic, single point]",
COc1ccc(NC(=O)N2CCc3ccccc32)cc1,"inconclusive [cytotoxic, single point]",
Cc1cccn2c(=O)c(/C=C(\C#N)S(=O)(=O)c3ccccc3)c(Oc3ccc(Cl)cc3)nc12,,inactive: -0.945%
Cc1ccc(SC[C@H](C)CN2CCC(NC(=O)OCc3ccccc3)CCC2=O)cc1 (stereo not given in full),"inconclusive [cytotoxic, single point]",
Oc1cccc(C2c3[nH]c4ccccc4c3CCN2Cc2ccc3c(c2)CCO3)c1 (stereo not given),active: 20.6 µM,
Cc1cc(/C=N/n2cnnc2)c(C)n1-c1ccc(OCc2ccc(Cl)cc2Cl)cc1,active: 23.1 µM,
CC1C=CCC2C(=O)N(c3cccc(C(=O)N4CCN(c5ccc(F)cc5)CC4)c3)C(=O)C12 (stereo not given),,inactive: 5.1%
CC1(C(=O)Nc2cccc3cccnc23)CCN1Cc1csc2ccccc12 (stereo not given),,inactive: -38.3%
Cc1cc2nc(CCN(Cc3cccnc3)C(=S)Nc3ccc(F)cc3)[nH]c2cc1C,"inconclusive [cytotoxic, single point]",
COc1cc(/C=C2/SC(=Nc3ccc(O)cc3)NC2=O)ccc1O,active: 0.651 µM,
O=C(O)C1CC(=O)N(c2ccc(OCc3ccc(Cl)cc3Cl)cc2)C1 (stereo not given),,inactive: -10.2%
Cc1ccc(CNC(=O)Cn2cnc3c(OCc4ccccc4)ncnc32)o1,,inactive: -0.545%
COc1ccc(CNC(=O)C[C@H]2C[C@H](C(=O)N3CCOCC3)[C@@]3(CCC4CCCC4)c4[nH]c5cc(-c6ccco6)ccc5c4CCN3C2=O)cc1OC,"inconclusive [cytotoxic, partial curve]",
Cc1ccc(C(O)c2ncc(-c3cccc(C(F)(F)F)c3)[nH]2)c(C)c1 (stereo not given),"inconclusive [cytotoxic, single point]",
Cc1nc2cc(NC(=O)C3(C)CCCN(C(C)C)C3)ccc2o1 (stereo not given),"inconclusive [rising, single point]",
COc1ccc(CC(N)c2csc(NC(=O)C(c3ccccc3)c3ccccc3)n2)cc1 (stereo not given),"inconclusive [cytotoxic, single point]",
CCN1CCN(C(=O)c2nn(C)c3c2CS(=O)(=O)c2ccccc2-3)CC1,"inconclusive [rising, single point]",
O=C(CCC(=O)Nc1ccc(F)cc1)N/N=C/c1ccc(O)cc1O,,inactive: -13.4%
C/C(CC(=O)Nc1ccc(Cl)c(C(F)(F)F)c1)=N\NC(=O)c1ccccc1O,"inconclusive [cytotoxic, single point]",
Cc1nn(-c2ccccc2)c(N2CCCC2)c1/C=N/NC(=S)Nc1ccccc1F,"inconclusive [cytotoxic, single point]",
Cc1cc(/C=C\c2ccc3cc(N(C)C)ccc3[n+]2C)c(C)n1-c1ccccc1,active: 0.92 µM,
N=c1c2c(-c3ccccc3)c(-c3ccccc3)n(Cc3ccco3)c2ncn1Cc1ccco1,active: 16.4 µM,
